Assay results taken from the supplement of paper PMC8792480.
The list shows a part of the results. Single values are uncertain, as repeats are few or missing.

Tested on: NCI-H460
Experiment: cell-surface PD-L1 MFI ratio relative to cisplatin alone (isotype-subtracted); higher = higher PD-L1 surface expression
Conditions: inducer: cisplatin 4 uM; 10 µM; 24 h
Procedure: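 A549 and H460 NSCLC cells were treated with each library drug at 10 uM, then with radiation (8 Gy) or cisplatin (4 uM), and incubated for 24 h. Cell-surface PD-L1 was measured by flow cytometry as an MFI ratio: (MFI drug+inducer - MFI isotype)/(MFI inducer alone - MFI isotype). Hits were defined as ratio < 0.75.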

Row | Compound | cell-surface PD-L1 MFI ratio
1 | CN1CCN(c2ccc([N+](=O)[O-])c3no[n+]([O-])c23)CC1 | inactive: 0.968
2 | COC(=O)[C@@H](N)CCCNC(=N)N[N+](=O)[O-] | inactive: 1.41
3 | COc1cc([C@@H]2c3cc4c(cc3[C@H](O)[C@H]3COC(=O)[C@@H]23)OCO4)cc(OC)c1OC [Picropodophyllin (PPP)] | inactive: 1.51
